Test results published in the RNAGym collection of RNA variant scans (doi:10.1093/nar/gkz1192).
The source gives no read counts; variants with many changes may rest on few reads.

B1: CPEB3 Ribozyme (parent)
chain: UAACAGGGGGCCACAGCAGAAGCGUUCACGUCGCAGCCCCUGUCAGAUUCUGGUGAAUCUGCGAAUUCUGCUGUAUAUCUC

Variants of: B1
Assay: self-cleavage, relative activity (ratio to wild type); higher = more cleavage; in vitro, sequencing
Outline: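 Relative activity was defined as the cleaved/total read fraction for a variant divided by the same fraction for the unmutated ribozyme. CPEB3 self-cleaving ribozyme libraries were made by rounds of error-prone PCR, barcoded, and transcribed in vitro with T7 RNA polymerase for 5 hours at 37°C, and cleavage ran through transcription plus a 15 min DNase I step before EDTA. Illumina sequencing of template-switched reverse transcripts gave the reads, and DNA sequencing mapped the barcodes. Averages come from three batches, using variants with at least 5 reads.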

Variant	self-cleavage
U25C U54C U60C	0.19
U26A U69G U76C	0.4
U26A U69A G70C	0.22
U25C U67C G70A	0.38
U25C U51C U60C A77G	0.36
U26C A28U A35G G46A A57G G63A	0.16
U25G U41A U54G	0.42
U26A G42A A47U U67C	0.05
U25C U54C G55U	0.22
U25C U48C U51C	0.22
U26A U72A U78A U80A	1.08
U26A A35G U60C U72C	1.11
U26A U31C G52C A65G U69C U74A	0.11
U25G A28G A45G	0.07
U26A U43A A65G U72C	0.08
U25G A28G A65G U76A	0.08
U25G A65G U72C	0.09
U25C U43C A77U	0.32
U26A C40A G55U A64U U69C	0.05
U26C A28G U31C G36U U43C A47U	0.17
U26A U31C A35G U60C U66C C68A	0.21

Variant	self-cleavage
U25C U48C U66C U72A	0.15
U26A U41C C44U A57G	0.28
U26A C29U U51C U60A U72C	0.16
U25C U67C C71G	0.14
U26A U54C A64U C79G	0.1
U25C U54C U69C	0.39
U26A U31C U66C U69C	0.1
U25C U43C U58C	0.19
U25C U43A U54A G63A A77G	0.16
U25C U43A U51G U78C	0.1
U26A U66C A77U	0.44
U25G A28G U31C	0.31
U26A A35G U49C A65G	0.35
U26A A28G U41C U78C	0.11
U25C U43A U80C	0.28
U25G C39U U74C	0.13
U26A U67C U74C A75U	0.1
U26A A64G A65G U74C	0.05
U25G U54C U60C	0.2
U25C U49A U60C G61U C62G U72C	0.05
U26A G30A U41C G70A U76A	0.35

Variant	self-cleavage
U26C A28U A56G A64U	0.09
U25C U67A U72A U80C	0.13
U26C A28C U67A U80C	0.09
U26A U41A A56U A64G	0.14
U25C U60G A77G	0.15
U26A U41A U76A	0.19
U25C U43C A47G U60C U80C	0.12
U25C U49C A64G	0.26
U26A A45U U49C	0.26
U25C U60A U80A	0.18
U26A U48C A65C	0.2
U25C U43C U49A G61C U72C	0.36
U26A C38U C59U U74A	0.75
U26C A28G A45G U54C	0.4
U25C U43C U67C	0.1
U25G C29U U48C A65G	0.3
U26A U58C U80A	0.46
U25C U54A U58G G70A A77G	0.04
U26A U49C A57U G70A	0.09
U26A A47G U76C	0.51
U26C A28C G55A U72A	0.17

Variant	self-cleavage
U26A A28G A47G	0.48
U25C U43C C59A A77G	0.46
U26C A28C U49C U69C	0.32
U26A C29U U41A U60A	0.14
U26A U31C A75G	0.57
U25C U49C U69A	0.08
U26A U48C U49C U51A	0.28
U26A A28G C34G	0.29
U26A A28G C34U	0.1
U25C U60A A64G U72A	0.03
U26A A47G G61A	0.5
U26A C34G A65U U78C	0.11
U26A A47G A57G U58C	0.93
U26A G30U C34U U58A	0.14
U25G U26C U74C U78C	0.11
U26A A65U U67A	0.25
U25C U43C U48C	0.19
U25C U54A U72G U80C	0.15
U26A C40U A45U	0
U26A A35U U43C U48A U49C U76C	0.06
U26A C27G U51C A57G U78C	0.3
